Experimental data as given in the supplement of paper PMC3334620.
Whole data set: some 33,000 sequences, median “E-score (-0.5 to 0.5)” near -0.053, cut for the highest 2% near 0.37. The list shows a part of the results.

Each sequence was assayed against Hap1 (UniProt P0CE41) (assay: PBM E-score (8-mer binding enrichment) (E-score (-0.5 to 0.5)); higher = stronger / more preferred TF binding; most listed sequences are background and not binding sites). Conditions: protein concentration: 200 nM; construct: GST-DNA-binding domain.
Summary of the method: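 Yeast transcription factors carrying a GST tag, as full-length proteins or DNA-binding domains, were produced by PURExpress in vitro transcription/translation. About 100-200 nM protein was applied to universal all-10-mer Agilent arrays, double-stranded by primer extension on fresh or once-stripped slides. Bound protein was detected with fluorescent anti-GST, and scans were normalised with masliner. The Universal PBM Analysis Suite gave each ungapped eight-base word, pooled with its reverse complement, an E-score, a modified Wilcoxon-Mann-Whitney statistic.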

Chain of UniProt P0CE41 (P0CE41 whole entry, the tested form may be a part): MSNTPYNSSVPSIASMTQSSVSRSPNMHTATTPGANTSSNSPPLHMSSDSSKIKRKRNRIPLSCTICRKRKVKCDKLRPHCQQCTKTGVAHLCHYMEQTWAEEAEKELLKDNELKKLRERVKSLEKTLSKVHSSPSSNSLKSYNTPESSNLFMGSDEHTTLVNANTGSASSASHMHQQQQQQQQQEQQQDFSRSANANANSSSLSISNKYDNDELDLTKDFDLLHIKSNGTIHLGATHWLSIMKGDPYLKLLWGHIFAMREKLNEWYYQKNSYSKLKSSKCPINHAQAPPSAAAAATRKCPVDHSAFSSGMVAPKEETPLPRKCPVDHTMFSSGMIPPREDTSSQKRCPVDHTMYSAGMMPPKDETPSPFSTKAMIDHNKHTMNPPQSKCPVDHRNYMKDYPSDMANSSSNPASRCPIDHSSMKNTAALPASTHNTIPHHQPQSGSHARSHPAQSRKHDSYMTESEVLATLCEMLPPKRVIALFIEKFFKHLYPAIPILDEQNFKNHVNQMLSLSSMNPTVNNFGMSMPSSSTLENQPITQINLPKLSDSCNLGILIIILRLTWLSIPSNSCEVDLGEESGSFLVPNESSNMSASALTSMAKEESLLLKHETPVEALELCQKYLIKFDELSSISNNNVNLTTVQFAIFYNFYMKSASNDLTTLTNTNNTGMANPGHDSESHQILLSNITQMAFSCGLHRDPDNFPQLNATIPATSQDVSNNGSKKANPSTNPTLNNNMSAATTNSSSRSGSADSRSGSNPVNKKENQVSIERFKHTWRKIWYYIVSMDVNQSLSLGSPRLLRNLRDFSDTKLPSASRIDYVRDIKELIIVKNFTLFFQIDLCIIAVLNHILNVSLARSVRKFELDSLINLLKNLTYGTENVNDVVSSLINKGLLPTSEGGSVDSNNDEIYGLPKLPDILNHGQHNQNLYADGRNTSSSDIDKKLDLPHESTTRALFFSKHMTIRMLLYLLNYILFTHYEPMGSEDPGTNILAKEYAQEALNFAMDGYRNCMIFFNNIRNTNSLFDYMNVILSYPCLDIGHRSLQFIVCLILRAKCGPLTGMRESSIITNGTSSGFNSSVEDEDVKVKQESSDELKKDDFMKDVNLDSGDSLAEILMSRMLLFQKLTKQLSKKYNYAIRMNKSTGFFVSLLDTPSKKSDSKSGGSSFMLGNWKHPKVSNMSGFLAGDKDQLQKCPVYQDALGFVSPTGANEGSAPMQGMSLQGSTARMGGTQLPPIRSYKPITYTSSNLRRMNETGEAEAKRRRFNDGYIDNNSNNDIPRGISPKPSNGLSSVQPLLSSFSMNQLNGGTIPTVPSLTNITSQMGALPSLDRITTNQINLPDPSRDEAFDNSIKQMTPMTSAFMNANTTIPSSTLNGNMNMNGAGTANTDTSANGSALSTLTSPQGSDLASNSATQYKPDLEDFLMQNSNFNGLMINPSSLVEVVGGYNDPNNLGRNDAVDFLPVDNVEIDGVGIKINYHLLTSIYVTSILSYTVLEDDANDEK

Sequence | PBM E-score
GAGTCAAC | -0.124
AATTAGGA | -0.0195
AACACCCG | 0.309
AATTTTTA | 0.0164
ACACCGCA | 0.21
CCCGCAAG | -0.103
ATAAGTAC | -0.0179
ACAGAGGC | -0.186
CCAAGGCG | -0.103
ATTAAGGG | -0.101
GACACCGC | 0.128
CCGCAGAC | 0.121
CGTTTTTC | -0.0472
ACTAAATC | 0.155
CAGTATAG | -0.0365
AAAGATGA | -0.143
CACACGGC | 0.153
CAATCACC | 0.245
AAGATGAC | -0.22
AGATTGAG | -0.135
GGAAGTGA | 0.112
CGCGCGCC | 0.201
CAAAACGC | 0.0814
CGCGGACA | 0.335
CGTGTTTA | 0.038

Sequence | PBM E-score
CGCTTTAC | 0.0374
GCCAAGGA | -0.207
AACGGGGA | 0.169
GCCTGCGA | -0.234
GCAATTGA | 0.0449
TCATCCAA | -0.0815
AATGAACT | 0.0548
GCGGGAGA | 0.207
CTGTTAGC | 0.00169
TACCCCGA | 0.398
GTACAAAA | -0.147
ACTCAAGG | -0.0313
ATTTCACC | -0.0306
CAACGTTC | 0.0138
AGGTTGGA | 0.0245
CTTTCCTA | -0.249
ATCGTGTG | -0.0878
CTGTTGAA | -0.107
ATTTTGGC | -0.123
ACTTTAAC | -0.153
ACTGGTTA | -0.141
ACAGGCCA | -0.0966
ATATCCCA | 0.145
CAGTTGTA | -0.0413
CGTCAATC | -0.00119

Sequence | PBM E-score
AGAAGTAG | -0.204
TCAGTCAA | -0.168
GATTGCGC | 0.0765
CAGGGCGC | 0.026
CGCGGAAC | 0.27
GGCGACAA | 0.142
ACAGCCAA | -0.216
ACAAGGGC | -0.112
CCCTAAGG | -0.179
AGTGTAAG | -0.264
AGCGGAGA | 0.276
GTCGGATA | 0.339
ACTATATC | -0.0639
CATAGCTA | -0.226
ATGGAGAG | -0.166
CGAGGCCA | 0.022
GGGGACCC | -0.043
AGGCGACG | -0.05
AATCTCCT | 0.0543
CCCGTGAC | 0.103
AACCATCA | -0.0631
ATTCATAC | 0.0162
GATTTTAA | 0.182
ACAACAGG | -0.124
CTAAAAAA | 0.0875

Sequence | PBM E-score
ATGAGTGC | -0.142
ATGCAAAT | -0.114
AAAATCAG | -0.167
CAAGGTAA | -0.0636
ATGGATTG | -0.109
CTTATCAA | -0.101
CTCTTATC | 0.18
GCTCTACA | -0.124
AGTACTAC | -0.193
AGAGAAGC | -0.169
GGCTGGCA | -0.143
CTGGTGTA | -0.214
CCATCTCG | 0.171
ACGATTGG | -0.123
AGCGGTTA | 0.0174
AGGGAGCG | -0.231
ATGCCTTC | -0.32
ATATTCAT | -0.222
CATACCGG | 0.355
ACCGTCTC | 0.0202
CCGTTGAC | 0.112
AAAGATCA | -0.151
ATCAAGGA | -0.163
ACCGACCA | 0.0766
ACACCTAC | -0.104

Sequence | PBM E-score
ATGTAAAA | -0.185
CCTTTCCC | 0.252
GCTTCGCA | -0.13
AACAGGGG | -0.247
ATACGATG | 0.0413
AGGGCAAG | -0.0376
GAGCGAGC | 0.0204
ACGTATGG | -0.0559
ACTTCAAG | -0.27
ACTGTCTA | -0.186
CACAGCCC | -0.159
CAAACCGA | 0.0483
GTGAAGGA | -0.189
ATGAACAC | -0.0814
AAAAATTT | 0.0632
GCAAAGAA | 0.0542
ACGAAAAT | -0.025
AGCGGTAA | 0.247
ATAGGCAC | -0.101
AGTTAGCA | -0.0943
ACTATACG | -0.00086
ACCAGAGG | -0.255
ACAATAGG | -0.0571
AATAAAGA | -0.039
AATGCATA | -0.123

Sequence | PBM E-score
GACTCCTC | -0.168
AGAGGCCA | -0.167
AGTGCGAG | -0.171
TCGTCTAA | -0.183
CCGGGATC | 0.365
TGTCCCAA | -0.233
AGCCCGAT | 0.287
ATCGTGGG | -0.0311
ATAGTCTG | -0.262
CGTATCTC | 0.296
GACTGGGA | -0.0484
ATAGCGAG | 0.15
GACAGGGC | -0.0413
CTCCCAAC | -0.141
ACTCAGCA | -0.00767
CTCGTCGC | -0.183
AGGTCAAA | -0.182
ACCTGTGC | -0.271
GGTTGCTA | -0.0748
CGAGTGAG | 0.0125
GTCTTCGA | -0.131
TCTCCAGA | -0.0567
AAGAGTGA | -0.275
GCGTCATA | -0.0808
AGAACACT | -0.0744

Sequence | PBM E-score
CTACCAAA | -0.0213
AGGCTTGG | -0.00216
AACCCGCA | 0.191
GAGTCGAC | -0.0613
ATAAATCG | 0.105
AGAAAGTC | 0.0177
ACATAGTC | -0.0221
ACTCTCAG | -0.292
ACCCTGCT | -0.129
CGTCGACA | -0.113
GACAAGCC | 0.0751
GGAATTAA | 0.419
CCGGAAAC | 0.426
GGTCAGAA | 0.102
CATACAAG | -0.102
CCATGAGC | -0.239
CTCCGAAC | 0.415
ATGTGTTG | -0.142
AGCCTGAC | -0.122
GCATGTAA | -0.177
ATCAGGCA | -0.194
ACCTCTCT | -0.293
